This sample is rich in variants without activity.
B1: tRNA (parent)
chain: CUCUCGGUAGCCAAGUUGGUUUAAGGCGCAAGACUUUAAUUUAUCACUACGAAAUCUUGAGAUCGGGCGUUCGACUCGCCCCCGGGAGAUUUUUUCCUCGAGCAA

Variants of: B1
Experiment: nonsense suppression (GFP-seq) (ratio to wild type); higher = more function; SUP4oc tRNA, yeast GFP reporter sort-seq
How it was run: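 Raffinose/galactose medium with 80 mg/L adenine was used to grow yeast carrying genome-integrated tRNA variants (~3% random-mutation library), RFP, and a galactose-driven GFP ochre reporter. Cells went into GFP/RFP bins, which were Illumina-sequenced, and variants with ≥100 reads and ≥30 cells were scored. Nonsense suppression (GFPSEQ) is the per-bin median GFP/RFP weighted by estimated cell share and expressed relative to the unmutated parent tRNA.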
For A14G C34U C64G C77U, the nonsense suppression was ≤ 0.026.
With A14G C34U U63C G78C C79A the nonsense suppression was ≤ 0.026.
In the case of A14G C56U G73U C75A, the nonsense suppression is reported as ≤ 0.026.
With A14G C68A C75G the nonsense suppression was ≤ 0.026.
With A14G C72A the nonsense suppression was ≤ 0.026.
For A14G C72G A74G, the nonsense suppression was ≤ 0.026.
For A14G C75G G85A, the nonsense suppression was ≤ 0.026.
With A14G C77G C80U the nonsense suppression was ≤ 0.026.
For A14G C77U, the nonsense suppression was ≤ 0.026.
In the case of A14G C80G, the nonsense suppression is reported as ≤ 0.026.
For A14G C81G, the nonsense suppression was ≤ 0.026.
With A14G C81U the nonsense suppression was ≤ 0.026.
With A14G G15A C68G the nonsense suppression was ≤ 0.026.
In the case of A14G G18A A24G, the nonsense suppression is reported as ≤ 0.026.
With A14G G18A A30G the nonsense suppression was ≤ 0.026.
For A14G G18C G28U C80G, the nonsense suppression was ≤ 0.026.
For A14G G18U G25A, the nonsense suppression was ≤ 0.026.
For A14G G19U, the nonsense suppression was ≤ 0.026.
For A14G G19U C29G U76C G84A, the nonsense suppression was ≤ 0.026.
With A14G G25A A30C G86C the nonsense suppression was ≤ 0.026.
In the case of A14G G25C C64U, the nonsense suppression is reported as ≤ 0.026.
In the case of A14G G26C C29A, the nonsense suppression is reported as ≤ 0.026.
With A14G G32A the nonsense suppression was ≤ 0.026.
In the case of A14G G32A G61C U70A, the nonsense suppression is reported as ≤ 0.026.
For A14G G32C A62G G67U, the nonsense suppression was ≤ 0.026.
With A14G G32C A74U the nonsense suppression was ≤ 0.026.
For A14G G59U, the nonsense suppression was ≤ 0.026.
With A14G G61A the nonsense suppression was ≤ 0.026.
With A14G G61A U70A A89U the nonsense suppression was ≤ 0.026.
A14G G61C showed a nonsense suppression of 0.0278.
For A14G G61C A62U, the nonsense suppression was ≤ 0.026.
In the case of A14G G61C C68A C80G, the nonsense suppression is reported as ≤ 0.026.
For A14G G65A G67C G69C U71G, the nonsense suppression was ≤ 0.026.
With A14G G69A G86A the nonsense suppression was ≤ 0.026.
With A14G G86A the nonsense suppression was ≤ 0.026.
With A14G G88A the nonsense suppression was ≤ 0.026.
For A14G G88U, the nonsense suppression was ≤ 0.026.
In the case of A14G U16C A31G C56A U70G U76A, the nonsense suppression is reported as ≤ 0.026.
In the case of A14G U16C U63C G65U, the nonsense suppression is reported as ≤ 0.026.
In the case of A14G U16G A24G C27G U58C A60G G69C, the nonsense suppression is reported as ≤ 0.026.
In the case of A14G U17A, the nonsense suppression is reported as ≤ 0.026.
For A14G U17A A62G G88U, the nonsense suppression was ≤ 0.026.
With A14G U17G A54G C68U A89U the nonsense suppression was ≤ 0.026.
With A14G U17G C82G the nonsense suppression was ≤ 0.026.
In the case of A14G U20C C77G, the nonsense suppression is reported as ≤ 0.026.
For A14G U20C G88U, the nonsense suppression was ≤ 0.026.
In the case of A14G U20G G61C C82G, the nonsense suppression is reported as ≤ 0.026.
With A14G U21G A54G U70C the nonsense suppression was ≤ 0.026.
With A14G U21G U57C the nonsense suppression was ≤ 0.026.
For A14G U22C, the nonsense suppression was ≤ 0.026.
In the case of A14G U35A U57C A62C, the nonsense suppression is reported as ≤ 0.026.
For A14G U35G A87U, the nonsense suppression was ≤ 0.026.
With A14G U55G U71C the nonsense suppression was ≤ 0.026.
In the case of A14G U57A U70C G73A, the nonsense suppression is reported as ≤ 0.026.
For A14G U58G, the nonsense suppression was ≤ 0.026.
With A14G U71G G78U the nonsense suppression was ≤ 0.026.
For A14G U76A G84A, the nonsense suppression was ≤ 0.026.
For A14U A23C, the nonsense suppression was ≤ 0.026.
In the case of A14U A23G, the nonsense suppression is reported as ≤ 0.026.
With A14U A23G A62U G65A U70C A89G the nonsense suppression was ≤ 0.026.
In the case of A14U A23G A62U G84A, the nonsense suppression is reported as ≤ 0.026.
With A14U A24U A60C G67A U70C the nonsense suppression was ≤ 0.026.
With A14U A24U G26U C29G the nonsense suppression was ≤ 0.026.
In the case of A14U A31C, the nonsense suppression is reported as ≤ 0.026.
In the case of A14U A31G U55G C56U U58C, the nonsense suppression is reported as ≤ 0.026.
For A14U A31U C79U A89G, the nonsense suppression was ≤ 0.026.
In the case of A14U A31U G65C A74C U76G, the nonsense suppression is reported as ≤ 0.026.
In the case of A14U A31U G67C, the nonsense suppression is reported as ≤ 0.026.
In the case of A14U A33C A54U G88U, the nonsense suppression is reported as ≤ 0.026.
In the case of A14U A33C U58A, the nonsense suppression is reported as ≤ 0.026.
For A14U A33C U71A, the nonsense suppression was ≤ 0.026.
With A14U A33U G73A the nonsense suppression was ≤ 0.026.
With A14U A54C U55G the nonsense suppression was ≤ 0.026.
For A14U A54G, the nonsense suppression was ≤ 0.026.
In the case of A14U A60C G66A G67A, the nonsense suppression is reported as ≤ 0.026.
For A14U A62C C75U G84U, the nonsense suppression was ≤ 0.026.
For A14U A62C C83U, the nonsense suppression was ≤ 0.026.
With A14U A62U the nonsense suppression was ≤ 0.026.
For A14U A62U C79G A87G, the nonsense suppression was ≤ 0.026.
For A14U A62U G69A, the nonsense suppression was ≤ 0.026.
With A14U A74G the nonsense suppression was ≤ 0.026.
In the case of A14U C27A G78C A87C, the nonsense suppression is reported as ≤ 0.026.
With A14U C27G G32U U55A G67C C81G the nonsense suppression was ≤ 0.026.
For A14U C27U A33C G66C C68A U76C, the nonsense suppression was ≤ 0.026.
For A14U C29A, the nonsense suppression was ≤ 0.026.
For A14U C29A U55A G69C, the nonsense suppression was ≤ 0.026.
In the case of A14U C29G A87U, the nonsense suppression is reported as ≤ 0.026.
With A14U C29G C80A the nonsense suppression was ≤ 0.026.
For A14U C29U, the nonsense suppression was ≤ 0.026.
With A14U C34A G88A the nonsense suppression was ≤ 0.026.
In the case of A14U C56G G86C, the nonsense suppression is reported as ≤ 0.026.
With A14U C56U C80G G88C the nonsense suppression was ≤ 0.026.
With A14U C68A G86C the nonsense suppression was ≤ 0.026.
For A14U C75G U76C G84C, the nonsense suppression was ≤ 0.026.
For A14U C75U, the nonsense suppression was ≤ 0.026.
With A14U C80G the nonsense suppression was ≤ 0.026.
In the case of A14U G15A G65U, the nonsense suppression is reported as ≤ 0.026.
For A14U G15A U21G U35G, the nonsense suppression was ≤ 0.026.
With A14U G15C A60C C79U the nonsense suppression was ≤ 0.026.
In the case of A14U G15U A30G C83G, the nonsense suppression is reported as ≤ 0.026.
In the case of A14U G18U A54C U58C, the nonsense suppression is reported as ≤ 0.026.
With A14U G18U A60G G85U the nonsense suppression was ≤ 0.026.
For A14U G19C, the nonsense suppression was ≤ 0.026.
In the case of A14U G19U, the nonsense suppression is reported as ≤ 0.026.
With A14U G19U A24G G61C the nonsense suppression was ≤ 0.026.
For A14U G19U G32C U35A, the nonsense suppression was ≤ 0.026.
With A14U G19U G61C the nonsense suppression was ≤ 0.026.
In the case of A14U G25A A30U G86U, the nonsense suppression is reported as ≤ 0.026.
With A14U G25A C64A A74U the nonsense suppression was ≤ 0.026.
With A14U G25C A33U U76C the nonsense suppression was ≤ 0.026.
For A14U G25U A30C G65C, the nonsense suppression was ≤ 0.026.
In the case of A14U G25U G86C, the nonsense suppression is reported as ≤ 0.026.
With A14U G26C U57C the nonsense suppression was ≤ 0.026.
With A14U G26U A30U C56G U57A the nonsense suppression was ≤ 0.026.
For A14U G26U G32U, the nonsense suppression was ≤ 0.026.
With A14U G26U G78C the nonsense suppression was ≤ 0.026.
In the case of A14U G32C G61C C75U G88C, the nonsense suppression is reported as ≤ 0.026.
With A14U G59A G69A A74G the nonsense suppression was ≤ 0.026.
Variant A14U G61A has a nonsense suppression of 0.0341.
With A14U G65C C68A G69U the nonsense suppression was ≤ 0.026.
In the case of A14U G65U G84U, the nonsense suppression is reported as ≤ 0.026.
With A14U G66C the nonsense suppression was ≤ 0.026.
For A14U G67A, the nonsense suppression was ≤ 0.026.
In the case of A14U G69C C75G C81A, the nonsense suppression is reported as ≤ 0.026.
For A14U G73U G84C, the nonsense suppression was ≤ 0.026.
For A14U G84A, the nonsense suppression was ≤ 0.026.
For A14U G85A, the nonsense suppression was ≤ 0.026.
For A14U G85U, the nonsense suppression was ≤ 0.026.
In the case of A14U G85U A87C, the nonsense suppression is reported as ≤ 0.026.
With A14U G86U the nonsense suppression was ≤ 0.026.
In the case of A14U G88C, the nonsense suppression is reported as ≤ 0.026.
With A14U U16C U70A C80G the nonsense suppression was ≤ 0.026.
For A14U U17A G18C G73A, the nonsense suppression was ≤ 0.026.
With A14U U17C U22C A87C the nonsense suppression was ≤ 0.026.
With A14U U20A C34U U57A G85A the nonsense suppression was ≤ 0.026.
With A14U U20A G28C U57G the nonsense suppression was ≤ 0.026.
With A14U U20G A23G U58G G65C U70C G73A C82G the nonsense suppression was ≤ 0.026.
With A14U U20G A60C the nonsense suppression was ≤ 0.026.
With A14U U21A A23G U55G the nonsense suppression was ≤ 0.026.
In the case of A14U U21A U55G C81G C82U, the nonsense suppression is reported as ≤ 0.026.
For A14U U21G, the nonsense suppression was ≤ 0.026.
In the case of A14U U22C, the nonsense suppression is reported as ≤ 0.026.
In the case of A14U U22C A62C U70C, the nonsense suppression is reported as ≤ 0.026.
With A14U U22C G67C the nonsense suppression was ≤ 0.026.
In the case of A14U U22G A60U C72A A87C, the nonsense suppression is reported as ≤ 0.026.
With A14U U22G C29A C56A C77G the nonsense suppression was ≤ 0.026.
For A14U U35G C83U, the nonsense suppression was ≤ 0.026.
For A14U U55A, the nonsense suppression was ≤ 0.026.
For A14U U55C A60U A89U, the nonsense suppression was ≤ 0.026.
With A14U U55G G73A C77G the nonsense suppression was ≤ 0.026.
In the case of A14U U57G U71C, the nonsense suppression is reported as ≤ 0.026.
With A14U U63C A89U the nonsense suppression was ≤ 0.026.
In the case of A14U U63G G86U, the nonsense suppression is reported as ≤ 0.026.
For A14U U70A, the nonsense suppression was ≤ 0.026.
In the case of A14U U76G G78U, the nonsense suppression is reported as ≤ 0.026.
G15A gave a nonsense suppression of 0.188.
With G15A A23G C82U the nonsense suppression was ≤ 0.026.
With G15A A23U A54G the nonsense suppression was ≤ 0.026.
For G15A A24G C29G A54G, the nonsense suppression was ≤ 0.026.
With G15A A31C U71G the nonsense suppression was ≤ 0.026.
With G15A A31G C34A G66U U71A the nonsense suppression was ≤ 0.026.
With G15A A33C C80A G88C A89C the nonsense suppression was ≤ 0.026.
In the case of G15A A33C U71C, the nonsense suppression is reported as ≤ 0.026.
For G15A A33G C34U A62C, the nonsense suppression was ≤ 0.026.
With G15A A33U the nonsense suppression was ≤ 0.026.
With G15A A54U U55G U57G U58G the nonsense suppression was ≤ 0.026.
With G15A A60C U63A C68U the nonsense suppression was ≤ 0.026.
